Consider two substances from patent publication US5458889A (priority 1986, dated 1995).

For data set [1], the system named is cells. Kind of data set: Cell toxicity (Test 16). The class given is cell-based. The following applies: type 2 herpes simplex virus section. The text has this: The following results were obtained:
Data set [2] deals with Streptococcus Faecalis. The class given is cell-based.
Data set [3] has as its system cytomegalo virus. The text has this:
(§1) Virucidal activity according to the AFNOR Standard:

In data set [4] the test system is type 2 herpes simplex virus.
From the text: as §1

For Benzalkonium chloride, in data set [1], the “Cell Toxicity” value amounted to 0.05%. Further, the “effect of the serous proteins upon the efficiency of benzalkonium chloride” value in data set [2] is listed as “unfavourable effect of the serous proteins”. Further, the Inhibitory concentration in data set [3] and in data set [4] was 0.01 % by weight in each case.
In the case of Benzalkonium fluoride, in data set [1], the “Cell Toxicity” value is 0.08%. Moreover, the Inhibitory concentration in data set [3] and in data set [4] was 0.0075 % by weight throughout.
